Drawing on the RNAGym collection of RNA variant scans (doi:10.1093/nar/gkz1192), this text covers self-cleavage for 167 variants.

The source gives no read counts; variants with many changes may rest on few reads.

B1: CPEB3 Ribozyme (parent)
chain: UAACAGGGGGCCACAGCAGAAGCGUUCACGUCGCAGCCCCUGUCAGAUUCUGGUGAAUCUGCGAAUUCUGCUGUAUAUCUC

In this series the parent is B1. Nature of the series: self-cleavage, relative activity (ratio to wild type); higher = more cleavage; in vitro, sequencing. The essentials: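 Relative activity compares each variant's cleaved/total read fraction with that of the unmutated ribozyme. To get these fractions, barcoded CPEB3 ribozyme libraries from rounds of error-prone PCR were transcribed with T7 RNA polymerase for 5 hours at 37°C and then given 15 min of DNase I treatment before EDTA was added. The RNAs were reverse transcribed with template switching and sequenced on Illumina, and DNA sequencing linked barcodes to variants. A minimum of 5 reads applied, and three batches were averaged.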
As for G8A U41C G52U A57G, the self-cleavage was determined as 0.32.
In the case of G8A A18G U41C A57G U76C it was 0.07; in that of G6U A35U A77G, 0.02.
The value for G8A U25C U26C A56G was 0.24; that for G7A U25C U60C was 0.29; that for G7A A21G A35G A47G G63U U69C was 0.13.
In the case of G7C A18G U25A A28G G46A A65G U78C, the self-cleavage came out at 0.02.
The value for G7U A57G U72G was 0.25; that for G7A A18G A64G A65G was 0.14; that for G7A A28G U31G U49C A64U U76C was 0.12.
In the case of G7U G24A U26C U54C, the self-cleavage came to 0.05.
For the variant G7U A20U A57G U72C A77G, the self-cleavage worked out at 0.05.
Take G6U C39A A75U: the self-cleavage was found to be 0.39.
The value for G7A A20U A35U A56U U67C U72C was 0.04.
In the case of G8A U43A A47U U69C it was 0.06; in that of G7A A65G U69C U76A, 0.1.
The value for G8A U25C U78C was 0.18; that for G8A U60C U66G U80C was 0.08; that for G8A C32U U72C U80C was 0.26.
Regarding G7C G24C U58C, the self-cleavage amounted to 0.24.
In the case of G7U U26C U48C U49C it was 0.06; in that of G8A A64G C71A U72A U76C, 0.06.
In the case of G7A U26C C40G A57G G61U it was 0.1; in that of G7A A18G A56G, 0.34; in that of G8A A13U U48C G53A, 0.07.
In the case of G8A A15G A28G U72A it was 0.2.
For the variant G7C U43A U48C A57G U58A U74C A75G, the self-cleavage turned out to be 0.03.
In the case of G7U A15G A28G G70A it was 0.25.
The value for G8A A28C G52U U54G U60C A65G U66C was 0.06.
In the case of G8A A18C C59U it was 0.19; in that of G7A A18G U60A U72G, 0.14.
On to G7A U54G U58A A65G, for which the self-cleavage stood at 0.1.
In the case of G8A G33A A65U U72C U78C it was 0.05; in that of G7A A20G U76C C79A, 0.28.
The value for G6U C23A A45C was 0.21.
In the case of G7C C12G G24A it was 0.3; in that of G6U A20G G36A U41C A45U U78A, 0.05.
Consider G7A A18U A47G, for which the self-cleavage came to 0.06.
With G7A A20G A35U, the self-cleavage came to 0.09.
In the case of G7U U25C C40U A64G it was 0.41.
The value for G8A A64U G73A was 0.06.
In the case of G8A A75G A77G it was 0.09.
G8A A45G U48C U60C A65G U72C: the self-cleavage is 0.07.
The value for G7U A20G U26A U49C was 0.04; that for G7A G30C C50U was 0.18.
In the case of G8A A35G U41C U72C U80A it was 1; in that of G7U A20G A65G U69C, 0.06.
The value for G7C G9A A21G A77U was 0.05; that for G7U A56U U80C was 0.07.
On to G8A A28G G42A U48C A57G A65U, for which the self-cleavage is 0.03.
In the case of G8A A35G A64U U74C U80C it was 0.24; in that of G7U A13G A57C, 0.19; in that of G7C C23U A57G U76C, 0.16.
The value for G8A A35G U72C was 0.51; that for G7C A45U G63C A65G U69A U80C was 0.08; that for G8A A65C U67C was 0.14.
G7U U48C U67A: the self-cleavage worked out at 0.08.
For the variant G8A U48C A65G U72C, the self-cleavage was determined as 0.13.
The value for G7U U31G U80C was 0.1; that for G7A A18G U26A U31C C40A A57G G61A was 0.04.
In the case of G8A A21G U25A U72C it was 0.32; in that of G7A U31C G53U A57G C59A, 0.06; in that of G7A G30C U54C A56G A77G, 0.06.
In the case of G7C U67A U72C it was 0.08; in that of G7U U43C U74A, 0.42; in that of G8A U26C G55A A64G U72A, 0.06.
As to G8A U67C U72A, the self-cleavage came to 0.11.
The value for G7A A20G U54C was 0.38.
In the case of G7U A15U U51A A65G it was 0.19.
Take G7A G19U A35G U51C U67A: the self-cleavage stood at 0.05.
Turning to G8A G16C G42A, the self-cleavage turned out to be 0.21.
Take G7U U26G U66C U80A: the self-cleavage was determined as 0.11.
The value for G7C A15G A35U A45G U49A was 0.37.
For G7A G10A A15U U25G U26G U74A, the self-cleavage stood at 0.03.
For G8A A35U U69A, the self-cleavage is 0.06.
The value for G7U A20U A56G U60G was 0.13.
Consider G7U A15G U51C U69C, for which the self-cleavage stood at 0.06.
Turning to G7A U25C A35G A56G U60A C62U, the self-cleavage was 0.08.
The value for G7U U41A G52U U54A U72C U76A was 0.32.
In the case of G7A G33U U41C U60A U74C it was 0.07; in that of G7A A56U U58C U72A, 0.07; in that of G8A A20G U54C A75U, 0.08.
The value for G8A C11A A20G U49A G52A was 0.05; that for G6U U51C A65G was 0.1; that for G7A A15G C23G A64G was 0.27.
G6U U41A A47G U74G: the self-cleavage was determined as 0.1.
In the case of G8A G19U U26A G36A U54C U69G it was 0.02; in that of G7U A13U G30A C32A, 0.07.
For G7A C17G U26C C32A U41C U72G, the self-cleavage worked out at 0.04.
In the case of G8A A20U U67C it was 0.15.
The value for G7C A18G A35G U41C U43A U78C was 0.62; that for G7A A35G U51C U80A was 0.24.
The value for G7U A28G C40U A45G U80A was 0.1; that for G8A U41C A45U U67C U72C was 0.18.
For the variant G6U U48C A56U, the self-cleavage is 0.13.
In the case of G8A U25A U41A A56G A75U U76C it was 0.18; in that of G8A U25A U26A C44U U80A, 0.24; in that of G8A A15U U25C U41C C62A A77G, 0.16.
The value for G8A A13U C17A was 0.35; that for G7U G10U G19C A21G C38U was 0.04; that for G7A A13U A15G U25C A57G U67C U78C was 0.08.
In the case of G7C U26C U31C A35U it was 0.07; in that of G8A C12U U26C U41A A65G U72A U78C, 0.03; in that of G8A A13U U26G C32A, 0.06.
As for G8A C44U G53A, the self-cleavage worked out at 0.06.
G7A A13U A18U U25C A28U U41C A77G: the self-cleavage was found to be 0.02.
The value for G8A A15U U25G C39A was 0.05; that for G8C A15U A56G A57U U58C was 0.08.
In the case of G6U G19U C23U A28U A64G U74A it was 0.22; in that of G8A G30C U31A, 0.21.
As for G7U G9U U60C, the self-cleavage was determined as 0.16.
The value for G8A G24A U66C was 0.25.
In the case of G8A A20U U51C it was 0.1.
In the case of G8A C17U G30U C32U A35U A45U U48C it was 0.04; in that of G8A U31C U41C, 0.24.
As to G8A U66C A77G, the self-cleavage is 0.04.
In the case of G6U U31C A47G U60C U72A, the self-cleavage was determined as 0.14.
The value for G7C A20G U25C was 0.51.
Take G7A A21G U41C U51C A56G U80C: the self-cleavage was 0.15.
As for G6U A21U G33U U60C, the self-cleavage was determined as 0.1.
In the case of G7U A15U C17U A18G U25C U60A it was 0.43.
The value for G6U A20U A35U U41C U54A U58C was 0.07; that for G8A C29A U51C U67C was 0.06; that for G6U U43C U54C was 0.11.
Regarding G6U U25A G36A U58C, the self-cleavage stood at 0.11.
For the variant G7U A13U A45G U58A U66G, the self-cleavage is 0.06.
The value for G7A A45U C62U U69C U72C was 0.06; that for G8A G16A A20G A21G A45U U54C C62U was 0.04.
The value for G8A A21G C23A U54C was 0.44.
The value for G8A U25C C32U C40A U78C U80A was 0.14.
Turning to G7A A15U A21G C40U, the self-cleavage is 0.31.
On to G8A A45G A56U U66C, for which the self-cleavage was found to be 0.12.
Take G8A C11U U31C: the self-cleavage was determined as 0.26.
The value for G8A U25C U26C U54C U72C was 0.08; that for G7C A45G U51C U72A was 0.07.
The value for G8A A15G A21G U25A A35C was 0.04; that for G7A G30U U41A U66C U69C U80A was 0.05.
Turning to G7A U26C G30A U48C C59A U76C, the self-cleavage worked out at 0.1.
Turning to G8A G10A A20U A45U C71U, the self-cleavage was 0.04.
In the case of G8A U26A A56G U67C it was 0.06.
The value for G7A C23G U26A A35G U43C was 0.05; that for G7U U31G U43C A47G U74C C81G was 0.04.
The value for G6U A13U U72A was 0.09.
Take G8A A15G C40U U48A A56G: the self-cleavage turned out to be 0.05.
The value for G8A U25C A35G U67A G73A was 0.07; that for G6U U51C G70C was 0.08; that for G7A G10C A18G C23U U41A U54G was 0.03.
With G8A A13U A35U A64G, the self-cleavage was 0.13.
With G7U C17U A18G, the self-cleavage was found to be 0.27.
In the case of G6U G19U G33C C40A U60C A65G it was 0.06; in that of G8A U31C U43A, 0.13.
In the case of G7U G22C U41A G73U, the self-cleavage was determined as 0.11.
In the case of G7U G9U C37G U49G G63U it was 0.04; in that of G7A C23A U26G U51A G70A, 0.12; in that of G7U A20U U26A C37A A47G U49C, 0.22.
The value for G8A G10U A15U G16C U31C U58C A65G was 0.11; that for G8A A13G G19A U25A U41C A65G was 0.05.
The value for G7A G19U A28G U31C A35U was 0.04; that for G7A G9A U31C was 0.17.
In the case of G8A A15G A65G U72C U74A U78C, the self-cleavage came to 0.14.
The value for G8A U60C C79G was 0.07.
In the case of G7A A28U U54C U80C it was 0.09; in that of G6U A15G G52A U67C, 0.12.
In the case of G7A U25C U41A U58C it was 0.17.
In the case of G8A C12A U48A U69A U74C, the self-cleavage is 0.19.
The value for G7A G10A U80C was 0.1.
In the case of G7U C40G U78C U80A it was 0.12.
